The source of these data is PubChem BioAssay AID1645887 (National Center for Advancing Translational Sciences (NCATS), 2021).

Where “and” joins values, the source holds several entries; their conditions need not be identical. Equal values may be shown once. Among all 16,000 compounds or so, about 40 (0.2%) were called active. Not shown: some 1% with an inconclusive outcome. Calls follow the shape of the dose curve; as a rule, active = well fitted activation curve with a large enough effect; inconclusive = small, poorly fitted or top-dose-only effect, or another doubt; inactive = no such curve, though single readings can be large or run the other way. Some of the results follow.
% is scaled to controls: 0 for no effect and ±100 for the full control effect.

UniProt Q8WZA2, sequence (Q8WZA2 whole entry, looked up): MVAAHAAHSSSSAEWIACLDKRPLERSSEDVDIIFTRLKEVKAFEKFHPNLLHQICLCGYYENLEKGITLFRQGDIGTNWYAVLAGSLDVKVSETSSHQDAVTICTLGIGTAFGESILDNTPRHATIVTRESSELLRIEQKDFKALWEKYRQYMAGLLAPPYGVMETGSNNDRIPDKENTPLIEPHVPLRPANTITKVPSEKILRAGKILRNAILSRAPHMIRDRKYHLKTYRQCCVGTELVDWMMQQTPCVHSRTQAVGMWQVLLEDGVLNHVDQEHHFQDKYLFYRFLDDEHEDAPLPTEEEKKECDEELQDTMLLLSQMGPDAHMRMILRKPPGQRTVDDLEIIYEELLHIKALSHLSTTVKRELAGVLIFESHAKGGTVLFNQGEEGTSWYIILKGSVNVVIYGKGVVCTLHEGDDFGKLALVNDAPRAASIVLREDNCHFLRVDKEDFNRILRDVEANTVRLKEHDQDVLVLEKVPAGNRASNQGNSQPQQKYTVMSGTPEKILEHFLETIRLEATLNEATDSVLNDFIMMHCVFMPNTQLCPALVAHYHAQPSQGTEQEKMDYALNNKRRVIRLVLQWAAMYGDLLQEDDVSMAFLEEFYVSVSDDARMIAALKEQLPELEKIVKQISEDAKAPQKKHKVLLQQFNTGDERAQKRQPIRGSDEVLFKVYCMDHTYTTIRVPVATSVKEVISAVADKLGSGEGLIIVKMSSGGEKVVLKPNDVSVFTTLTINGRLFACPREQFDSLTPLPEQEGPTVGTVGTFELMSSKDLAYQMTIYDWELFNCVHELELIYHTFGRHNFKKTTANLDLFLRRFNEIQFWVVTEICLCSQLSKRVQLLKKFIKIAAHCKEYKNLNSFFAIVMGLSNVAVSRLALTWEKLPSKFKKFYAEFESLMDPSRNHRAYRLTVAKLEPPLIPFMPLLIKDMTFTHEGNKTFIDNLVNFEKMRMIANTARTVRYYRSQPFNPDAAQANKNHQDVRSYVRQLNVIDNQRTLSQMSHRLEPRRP

The target in the assay is Rap guanine nucleotide exchange factor 4 (Homo sapiens) (UniProt Q8WZA2). Briefly: Validation qHTS for agonist of cAMP-regulated guanine nucleotide exchange factor 4 (EPAC2).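 Also: exchange makes BODIPY-GDP fluorescence drop when released from Rap1B; series mostly up to about 150 µM.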 The conditions noted are these: EPAC2 Rap1B BODIPY-GDP exchange, fluorescence; activation: active compounds read high. A digest of the protocol:
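Fluorescent exchange assay: 100 nM EPAC2 with 250 nM RAP1B-BODIPY-GDP and 50 uM GDP; compound added, 5 min at room temperature, then read (ex 480/em 540 nm) every 5 min for 30 min. Normalized to 6.5 mM cAMP agonist control.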
(In general: In qHTS, concentration-response curves come from the screen itself.)
With `C[C@@H]1CN(Cc2ccc3c(c2)CN(Cc2coc4ccccc4c2=O)CCO3)C[C@H](C)O1`, the activation is inactive: -3.32%. The same measure for `CC1=NN(c2ccc([N+](=O)[O-])cc2)C(=O)C1[N+](=O)[O-]` (stereo not drawn): inactive: -14.7%; for `COC(=O)c1ccccc1C(=O)N1CCOc2ccc(CN3CCN(c4ccccn4)CC3)cc2C1`: inactive: -18.8%; for `N[C@@H](Cc1cc(I)c(Oc2cc(I)c(O)c(I)c2)c(I)c1)C(=O)O`: inactive: -19.7% and inactive: 9.4%. For `CN1CCN(c2ncnc3ccc(-c4cccnc4)cc23)CC1` the value was inactive: -15.8%. For `CC1(C)CCC(C)(C)c2cc(NC(=O)c3ccc(C(=O)O)cc3)ccc21` the value was inactive: -26.7%; for `Cc1cc(=O)oc2cc(O)c(O)cc12`, inactive: -6.69%. In the case of `CN(C)Cc1ccccc1-c1cc(N(C)C)ncn1`, the activation was inactive: -5.71%. For `COc1ccc(C(=O)N2CCC3(CCN(Cc4ccccc4OC)CC3)CC2)cc1` the value was inactive: 1.68%. The same measure for `COc1cccc(Cn2c(=O)c(-c3ccc(F)c(F)c3)nc3cncnc32)c1`: inactive: -6.63%; for `CCCCCCCCCCCCCCCC[n+]1ccc(C)cc1`: inactive: -51%; for `CN(C)c1ccc(/C=C/c2c(Cl)cnc3ccccc23)cc1`: inactive: -18%.

Turning to `C[C@H](CCC(=O)O)[C@H]1CC[C@H]2[C@H]3C(CC[C@]12C)[C@@]1(C)CC[C@@H](O)C[C@H]1C[C@H]3O` (stereo partly drawn), the activation is inactive: -0.35% and inactive: 6.44%. The same measure for `Nc1ccc(/C=C/c2ccnc3ccccc23)c(N)c1`: inactive: -30.4%; for `O=C(C[N+]1(CC(O)c2ccccc2)CCCCC1)c1ccccc1` (stereo not drawn): inactive: -11.8%; for `COc1cc2c(cc1O)C(Cc1ccc(O)cc1)N(C)CC2` (stereo not drawn): inactive: -8%. For `COc1ncc2nc(-c3ccc(F)cc3)c(=O)n(C[C@H]3CCCO3)c2n1` the value was inactive: -1.57%; for `COc1cccc(CC(=O)NCC2Cc3cc(Cl)cc(-c4ncccn4)c3O2)c1` (stereo not drawn), inactive: -5.55%. For `COc1cc(CNc2nc(C)c(-c3ccn(CC4CCCN(C)C4)n3)s2)ccc1F` (stereo not drawn), the activation was inactive: -16.3%. For `CC(=O)Nc1ccc(S[C@@H](CCN2CC[C@H](O)CCC2=O)c2ccccc2)cc1` the value was inactive: -1.76%. The same measure for `O=C(c1n[nH]c2c1CCCC2)N1CCOc2ccc(C(O)C3CCCCC3)cc2C1` (stereo not drawn): inactive: -5.66%. `Cn1cc(-c2nc3cnc(N4CCOCC4)nc3n(C3CC3)c2=O)c2ccccc21`: the activation is inactive: -7.67%. For `Cc1cccc(CNc2cc(-c3c(C)noc3C)ncn2)c1` the value was inactive: -5.53%; for `O=c1cc(-c2ccc(O)c(O)c2)oc2cc(OC3OC(CO)C(O)C(O)C3O)cc(O)c12` (stereo not drawn), inactive: -12.1%. With `OCC(O)COc1ccc(Cl)cc1` (stereo not drawn), the activation was inactive: -15.5%. The same measure for `Cc1ccccc1-c1ccc(CN2CCc3nnc(C(NS(C)(=O)=O)C(C)C)n3CC2)cc1` (stereo not drawn): inactive: -3.43%; for `O=c1cnc2cnc(N3CCOCC3)nc2n1Cc1ccc(F)cc1`: inactive: -17.5%; for `CC(C)CN1CC2(CCN(S(=O)(=O)c3ccccc3)CC2)C1`: inactive: -1.4%. The same measure for `CC(=O)NCC(=O)NCC1Cc2cc(C)cc(-c3ccccn3)c2O1` (stereo not drawn): inactive: 0.493%. In the case of `Cc1nn(-c2ccccc2)c(C)c1/C=N/N1CCN(Cc2ccccc2)CC1`, the activation was inactive: -35.7%. The same measure for `C=C1C(=C/C=C2\CCC[C@]3(C)[C@@H]([C@H](C)/C=C/[C@@H](O)C4CC4)CC[C@@H]23)C[C@@H](O)C[C@@H]1O`: inactive: 1.19%. As to `O=C(c1csnn1)N1CCC2(CCCN(c3ncccn3)C2)CC1`, the activation is inactive: 0.753%. For `Nc1ncnc2c1ncn2[C@@H]1O[C@H](CO)[C@@H](O)[C@H]1O` the value was inactive: -9.07% and inactive: 5.69% and inactive: -10.6%; for `COc1cccc(C(=O)NCC2Cc3c(F)ccc(-c4ncccn4)c3O2)c1OC` (stereo not drawn), inactive: 1.02%; for `O=[N+]([O-])c1cccc(/C=C/c2ccccc2)c1`, inactive: 1.58%.

Consider `c1ccc(CNc2nc(-c3ccc4c(c3)OCO4)nc3ccccc23)cc1`, for which the activation was inactive: 3.01%. The same measure for `COc1cc(=O)n2c(c1C(=O)NC(C)c1ccco1)CCN(Cc1cc(C)cc(C)c1)CC2` (stereo not drawn): inactive: -2.14%.

Turning to `COc1ccc(C(=O)N2CCC3(CCCN(c4ccccc4)C3)CC2)cc1`, the activation was inactive: -0.913%.

Take `COC(=O)C1CCN(Cc2ccc3c(c2)CN(C(=O)c2ccc(-n4cnnn4)cc2)CCO3)CC1`: the activation is inactive: -3.06%.

`COC(=O)CC(NC1CCN(c2nc(C)c3cc4c(cc3n2)CCC4)CC1)C(=O)OC` (stereo not drawn): the activation was inactive: -9.13%.

Take `CCCCCCCCCCCCCCCCCC(=O)[O][Al]`: the activation was inactive: -8.35%.

On to `COc1ccc(CN2CCOc3c(cc(-c4ncc(C(F)(F)F)cc4Cl)cc3OCC3CCCO3)C2)c(O)c1` (stereo not drawn), for which the activation is inactive: 2.84%. With `CC(=O)O[C@@H]1CC2CCC1(C)C2(C)C` (stereo partly drawn), the activation is inactive: 2.84%. Regarding `O=C(O)C[C@H]1c2ccccc2S(=O)(=O)N1C1CCCC1`, the activation is inactive: -12.7%.

For the compound `Cc1cccc(-c2cc(=O)c3cc(C)ccc3o2)c1`, the activation was inactive: -4.89%. For `CN(C)C(=S)SC(=S)N(C)C` the value was inactive: -10.9%; for `COC(=O)[C@H](Cc1ccccc1)NS(=O)(=O)N[C@@H](Cc1ccccc1)C(=O)OC`, inactive: -11.6%.

Turning to `COC(=O)[C@@H]1CCCN1C(=O)c1cnn(-c2nccc(-c3cc(C)sc3C)n2)c1C1CC1`, the activation is inactive: -0.534%. For `C[n+]1cc2c3c(ccc2c2ccc4cc5c(cc4c21)OCO5)OCO3` the value was inactive: -9.33% and inactive: 1.21% and inactive: -29.8%; for `Cn1c(=O)c(-c2ccc(F)c(F)c2)nc2cncnc21`, inactive: 6.78%; for `CCc1cc(C(=O)NCc2c(C)ncc3c2CCN(C(=O)C2=CCCC2)C3)no1`, inactive: -4.52%. For `CN(C)c1ccc(-c2cc(Nc3ccc(F)cc3)ncn2)cc1` the value was inactive: -10.5%; for `COc1ccc2c(c1)OCC(Cc1ccc(O)c(OC)c1)C2=O` (stereo not drawn), inactive: -21.4%; for `CCCCCCCCN1[C@@H](CC(C)=O)c2cc(C(F)(F)F)ccc2S1(=O)=O`, inactive: -28.7%.

Turning to `O=c1c(-c2cc(F)cc(F)c2)nc2cnc(Oc3ccccc3)nc2n1C1CC1`, the activation was inactive: -5.19%. `CO[C@H]1C[C@@H]2CC[C@@H](C)[C@@](O)(O2)C(=O)C(=O)N2CCCC[C@H]2C(=O)O[C@H]([C@H](C)C[C@@H]2CC[C@@H](OCCO)[C@H](OC)C2)CC(=O)[C@H](C)/C=C(\C)[C@@H](O)[C@@H](OC)C(=O)[C@H](C)C[C@H](C)/C=C/C=C/C=C/1C`: the activation is inactive: -23.7%. As for `CN(C)CCN(Cc1ccccc1)c1ccccn1`, the activation was inactive: -33.3%. For `O=C(c1cccc(F)c1)N1CCC2(CCCN(Cc3nccs3)C2)CC1` the value was inactive: 1.02%; for `COc1cc(=O)n2c(c1C(=O)N(C)Cc1nonc1C)CCN(C(=O)c1ccc(C)cc1C)CC2`, inactive: -16.9%.

Take `CN(C)c1ccc(-c2cncnc2NCc2cccs2)cc1`: the activation is inactive: -17.5%. For the compound `CN(CC(=O)O)c1ccc(/C=C/c2ccnc3ccccc23)cc1`, the activation is inactive: 9.58%. For `COc1ccccc1N1CCN(CCN(C(=O)C2CCCCC2)c2ccccn2)CC1` the value was inactive: -23.2%; for `COc1cc2c(cc1OC)-c1cc3cc(OC)c(OC)cc3c(=O)n1CC2`, inactive: -28.1%; for `CC(=O)[C@H]1CC[C@H]2C3CC=C4C[C@@H](O)CC[C@]4(C)C3CC[C@]12C` (stereo partly drawn), inactive: 1.48%. For `CC(=O)O[C@@]12CO[C@@H]1C[C@H](O)[C@@]1(C)C(=O)[C@H](O)C3=C(C)[C@@H](OC(=O)[C@H](O)[C@@H](NC(=O)OC(C)(C)C)c4ccccc4)C[C@@](O)([C@@H](OC(=O)c4ccccc4)[C@H]21)C3(C)C` the value was inactive: -19.7% and inactive: -35.2%. For `COc1ccc(-c2cn(CC3CCCCC3)nn2)cc1` the value was inactive: -14.4%. Take `COc1ccc(CNC(=O)C[C@H]2C(=O)N(Cc3ccccc3)C[C@@H]2Cc2ccccc2)cc1`: the activation is inactive: -13.3%. With `COc1cccc(Nc2ncc3nc(-c4ccc(F)cc4)c(=O)n(C)c3n2)c1`, the activation was inactive: -31.6%. The same measure for `CC(CN(C)C)CN1c2ccccc2Sc2ccc(C(F)(F)F)cc21` (stereo not drawn): inactive: -10.7%. The same measure for `CCOC(=O)/C=C1\CN(Cc2ccc(OC)cc2)S(=O)(=O)c2ccc(C(F)(F)F)cc21`: inactive: -22%. For `CN(C)Cc1ccccc1-c1nc(NC2CCNCC2)c2ccccc2n1` the value was inactive: -5.63%; for `N[C@H](CO)Cc1cnc[nH]1`, inactive: -3.13%. As to `Cc1ccc(CN2[C@@H](c3ccccc3)COCCS2(=O)=O)cc1`, the activation was inactive: -17.7%.

In the case of `COc1cc2c3cc1Oc1cc(ccc1O)CC1c4c(cc(OC)c(O)c4Oc4ccc(cc4)CC3N(C)CC2)CC[N+]1(C)C` (stereo not drawn), the activation is inactive: -12.4%. The same measure for `Cn1cc(-c2nc3cncnc3n(Cc3ccccc3Cl)c2=O)c2ccccc21`: inactive: 5.05%; for `CC1(C)SC2C(NC(=O)C(NC(=O)N3CCNC3=O)c3ccccc3)C(=O)N2C1C(=O)O` (stereo not drawn): inactive: 1.7%; for `c1ccc2c(c1)CCCN2`: inactive: -8.29%.

In the case of `CCN(CC)CCOc1ccc(C(O)(Cc2ccc(Cl)cc2)c2ccc(C)cc2)cc1` (stereo not drawn), the activation was inactive: -21.4%. `COc1ccc(-c2coc3c(O)c(OC)ccc3c2=O)cc1`: the activation is inactive: -5.62%. Turning to `Cc1cnc(-n2ncc(C(=O)N(CCO)C(C)C)c2-c2cccs2)nc1-c1ccc(F)cc1`, the activation was inactive: -8.21%. The same measure for `CCCCN(CCC#N)c1ccc(/C=C/c2ccnc3ccccc23)cc1`: inactive: 6.62%. Take `COc1ccc(CNc2ccnc(-c3ccccc3Cl)n2)c(OC)c1`: the activation was inactive: -15.3%. For `Nc1ncnc2c1ncn2[C@@H]1O[C@H](C(=O)NC2CC2)[C@@H](O)[C@H]1O` the value was inactive: -8.59%.
